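Protocol summary: plate cells (96-well), add compound at 5 concentrations, incubate 48 h, interpolate endpoints linearly. GI50 = concentration required for 50% inhibition of growth.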 Active and inactive are the calls of the source. Cut-off read from the data, not from the text of the source: active = GI50 up to about 1.1 µM and inactive = higher.

A word on the GI50: it is the concentration at which growth is held to half of that of the control.

The assay has as its system NCI-H322M. In words: DTP human tumour cell line panel, 48 h.
For `CCSCCCC(=O)O`, the GI50 was inactive: > 100 µM.

For the molecule `COc1c2c(c3c(c1CCC(=O)O)OC(C)(C)C=C3)OC(C)(C)C=C2`, the GI50 was inactive: > 100 µM. For `CCCCCCCCCCCCCCCCCCNc1ccn(C2OC(COP(=O)(O)OCC3OC(n4cc(F)c(=O)[nH]c4=O)CC3O)C(O)C2O)c(=O)n1` (stereo not drawn), the GI50 is inactive: 44 µM. For the molecule `COc1ccc2[nH]c3cc4c(=O)c5cc(OC)ccc5[nH]c4cc3c(=O)c2c1`, the GI50 was inactive: > 100 µM.

On to `O=C1Nc2ccccc2/C1=N/NC(=S)Nc1ccc([N+](=O)[O-])cc1`, for which the GI50 was inactive: 12.4 µM.

With `C/C=C(/C)C(=O)O[C@@H]1c2c(C)coc2C[C@H]2CC[C@H](O)[C@H](C)[C@]21C`, the GI50 is inactive: > 100 µM. Turning to `Cc1cc(=O)n(-c2cc3cccccc-3n2)[nH]1`, the GI50 was inactive: 17.8 µM. On to `CCOC1=NC(C(F)(F)F)(C(F)(F)F)N=C(N2CCOCC2)O1`, for which the GI50 is inactive: > 100 µM. With `CCOc1ccc(N(CC(=O)N2CC(=O)Nc3cc(C)c(C)cc32)C(C)=O)cc1` the figure was inactive: > 100 µM; with `O=c1c2nn3c(=O)n(-c4ccccc4)c(=O)c3nn2c(=O)n1-c1ccccc1`, inactive: > 100 µM; with `O=C(NC12CC3CC(CC(C3)C1)C2)C(=O)c1c[nH]c2ccc([N+](=O)[O-])cc12`, inactive: 56.2 µM.

For the molecule `Cn1c(=O)c2c3ccccc3n(C)c2n(C)c1=O`, the GI50 is inactive: > 100 µM. For the molecule `C(=N\N=C1NCCCCN1)/c1ccc2ccccc2c1`, the GI50 is inactive: 34 µM. Regarding `O=C(O)C12C3C4C1C1C2C3C1(Br)C41OCCO1` (stereo not drawn), the GI50 is inactive: > 100 µM. As to `O=c1[nH]/c(=C/c2ccc(OCc3ccccc3)cn2)c(=O)[nH]/c1=C/c1ccc([N+](=O)[O-])cc1`, the GI50 is inactive: > 100 µM.

As to `CC1(C)OC[C@@H](O)[C@H](Br)CO1`, the GI50 is inactive: > 100 µM. Turning to `O=C(c1cc(Cl)cc(Cl)c1)N(C(=S)OC12CC3CC(CC(C3)C1)C2)c1ccccc1`, the GI50 was inactive: 45.7 µM.

On to `CCCCC(CCCC)=NNC(=S)SC`, for which the GI50 is inactive: 25.5 µM. Turning to `Cc1cc(O)c(C(=O)O)c2c1C(=O)c1c(O)c(OCC(O)C(O)C(O)C(O)CO)c(O)c(O)c1C2=O.NCCNCCO` (stereo not drawn), the GI50 is inactive: > 100 µM. For the molecule `CCc1ccc2c(c1)/C(=C1/Nc3ccccc3/C1=N/O)C(=O)N2`, the GI50 was inactive: 5.47 µM. For the molecule `CCOC(=O)C1C(c2ccccc2)C2(C#N)C(=N)OC1(C)C2(C#N)C#N` (stereo not drawn), the GI50 was inactive: 17.3 µM. As to `CC(C)=CCc1ccc2[nH]c3c(c2c1)C(=O)C(=O)C(C)=C3C(O)C(C)O` (stereo not drawn), the GI50 is inactive: 18.6 µM. As for `CCC1=NC(N/N=C/c2ccccc2O)=N/C1=C\c1ccccc1O`, the GI50 was inactive: 13.5 µM.

`COCCN(CCOC)C(=O)COc1c2cc(C(C)(C)C)cc1Cc1cc(C(C)(C)C)cc(c1OCC(=O)N(CCOC)CCOC)Cc1cc(C(C)(C)C)cc(c1OCC(=O)N(CCOC)CCOC)Cc1cc(C(C)(C)C)cc(c1OCC(=O)N(CCOC)CCOC)Cc1cc(C(C)(C)C)cc(c1OCC(=O)N(CCOC)CCOC)C2`: the GI50 is inactive: 3.28 µM. On to `Oc1nc2nnc(COc3ccc(Cl)cc3Cl)n2nc1Cc1ccccc1`, for which the GI50 was inactive: 54.8 µM. On to `CCOC(=O)/C(C(N)=O)=C(O)/C(O)=C(\Br)C(=O)c1ccccc1`, for which the GI50 is inactive: 45.9 µM. As to `CCCOc1ccc(/C=C/C2=[N+](CCO)CCO2)cc1`, the GI50 was inactive: > 100 µM.

Turning to `NNC(=O)c1cc([N+](=O)[O-])ccc1NC(=O)C12CC3CC(CC(C3)C1)C2`, the GI50 was inactive: 3.69 µM. As for `CN(C)c1ccc(/N=N/c2ccccn2)cc1`, the GI50 was inactive: 33.7 µM. Regarding `COC(=O)C1=CCON(c2ccccc2)C1c1ccccc1` (stereo not drawn), the GI50 is inactive: 86.5 µM. Turning to `CN1N=C(c2ccncc2)OC1c1ccc(Cl)c(Cl)c1` (stereo not drawn), the GI50 was inactive: > 100 µM. Consider `CCOC(=O)[C@H]1C[C@@H](C(=O)c2ccccc2)N2N=C(c3ccc(Br)cc3)C=C[C@H]12`, for which the GI50 is inactive: > 100 µM. Turning to `C=C1C(C(=O)O)C1C(=O)O` (stereo not drawn), the GI50 was inactive: > 100 µM. `C=C1C(=O)OC2C1CC(OC(C)=O)/C(C)=C/CCC1(C)OC21` (stereo not drawn): the GI50 was inactive: > 100 µM. With `O=[N+]([O-])c1cccc2nc3ccccc3c(NCCC[N+]3([O-])CCCCC3)c12`, the GI50 was active: 0.721 µM. Turning to `O=[N+]([O-])/C(C(Cl)=C(Cl)Cl)=C(/Cl)SCc1ccccc1`, the GI50 was inactive: 20.9 µM.

With `O=C(CCN1CCOCC1)C(=Cc1ccccc1)C(=O)CCN1CCOCC1`, the GI50 was inactive: 22.2 µM. Turning to `CCOP1(=O)CC(C)=C(Cl)C(OC)C1` (stereo not drawn), the GI50 is inactive: > 100 µM. With `CCCCCCSCC/C(C)=N\OC` the figure was inactive: > 100 µM. Consider `COc1ccc2c(c1)CC1c3c(ccc(OC)c3O)CC2N1C` (stereo not drawn), for which the GI50 was inactive: 45.3 µM.

On to `CCN(c1cccc(NC(=S)Nc2ccccc2N(CC)c2cc(-c3ccccc3)no2)c1)c1cc(-c2ccccc2)no1`, for which the GI50 was inactive: > 100 µM. For `CCOC(=O)/C=C(/C(=O)OCC)n1ccc(=O)n(CC(=O)OCC)c1=O`, the GI50 was inactive: 11.8 µM. Regarding `COC(=O)[C@H](CCSC)NC(=O)N[C@H](C)c1ccccc1`, the GI50 is inactive: > 100 µM.

For the molecule `N#C/C(=C1C=C(Br)/C(=N\O)C=C\1Cl)c1cccc2ccccc12`, the GI50 is inactive: 4.45 µM. Consider `CSc1ncc2c(n1)-c1ccccc1OC2N1CCCC1` (stereo not drawn), for which the GI50 was inactive: > 100 µM.

Regarding `O=C(/C=C/c1ccc2c(c1)OCO2)Cc1nc2ccccc2[nH]c1=O`, the GI50 is inactive: 33.5 µM. For the molecule `CCOC(=N)CC(=O)c1ccccc1`, the GI50 is inactive: > 100 µM. Turning to `CC(C)(C)C1=CC(C)(n2[nH]c(=O)n(-c3ccccc3)c2=O)C=C(C(C)(C)C)C1=O`, the GI50 is inactive: > 100 µM. With `Nc1ncc(/C=N/O)c(NCC2(CO)CC(CCc3ccccc3)C2)n1` (stereo not drawn), the GI50 is inactive: 11.9 µM. Consider `O=C(COc1ccc(OCC(=O)N/N=C/c2ccc(-c3ccc(Cl)cc3Cl)o2)c(Cl)c1)N/N=C/c1ccc(-c2ccc(Cl)cc2Cl)o1`, for which the GI50 is inactive: > 100 µM. Regarding `Cc1ccc(-c2cc(O)c3nc4ccccc4n3c2)cc1`, the GI50 was inactive: > 100 µM. With `CCOC(=O)[C@H]1Nc2c(cccc2[N+](=O)[O-])[C@H]2OCC[C@@H]12`, the GI50 was inactive: > 100 µM.

For the molecule `CCOc1cc(NC(C)=O)ccc1C(=O)NNS(=O)(=O)c1ccc(Cl)cc1Cl`, the GI50 is inactive: > 50 µM. Turning to `O=c1ccn([C@@H]2C[C@H]2CO)c(=O)[nH]1`, the GI50 was inactive: > 100 µM. With `O=c1[nH]c(=O)n(C2OC(CO)C(O)C(F)C2O)cc1F` (stereo not drawn) the figure was inactive: > 100 µM. `CCOC(=O)CCCn1nnc(C(=O)OCC)c1C(=O)OCC`: the GI50 is inactive: > 100 µM. For `C[C@]12CCC(=O)C=C1CC[C@@H]1C2CC[C@]2(C)Nc3[nH]ncc3CC12` (stereo partly drawn), the GI50 is inactive: > 100 µM. For the molecule `O=C(NCCN1CCCCC1)c1ccc(Br)cc1`, the GI50 was inactive: > 100 µM. With `O=C(O)C1=Cc2cccc3cccc(c23)C1=O`, the GI50 was inactive: > 100 µM. In the case of `O=c1oc2c3ccc4ccccc4c3n(CCN3CCOCC3)c2c2ccccc12`, the GI50 was inactive: 7.74 µM.

As for `O=C(Nc1ccn(C2CCC(CO)O2)c(=O)n1)c1ccccc1` (stereo not drawn), the GI50 is inactive: > 100 µM.

Take `COc1cc([C@@H]2c3cc4c(cc3[C@@H](Nc3ccc([N+](=O)[O-])cc3C(=O)c3ccccc3)[C@H]3COC(=O)[C@H]23)OCO4)cc(OC)c1OC`: the GI50 is active: 0.596 µM.

Regarding `CC[N+](CC)(CC)/C(=N\S(=O)(=O)c1ccc(Cl)cc1)[N-]S(=O)(=O)c1cc(C)c(Cl)cc1S`, the GI50 was inactive: 66.1 µM. Take `CC1(N2CCOCC2)CC2C(=[N+]1[O-])CCC/C2=N/O` (stereo not drawn): the GI50 is inactive: 7.14 µM.

As to `CC(=O)NNc1nc(C)c(C(/C=C/c2ccc([N+](=O)[O-])cc2)=N/NC(N)=O)s1`, the GI50 is inactive: > 100 µM. On to `O=C(/C=C/c1ccc(Cl)c(Cl)c1)c1cccc2ccccc12`, for which the GI50 is inactive: 16.2 µM. Consider `C1CCN2CC3CONC3C2C1` (stereo not drawn), for which the GI50 is inactive: > 100 µM. `CCOC(=O)C1=C(Nc2cccc3ccccc23)OC/C1=N\NC(=O)c1ccccc1O`: the GI50 was inactive: 21.1 µM.

For the molecule `Cc1nnc2sc(-c3ccc([N+](=O)[O-])o3)nn12`, the GI50 was inactive: 26.2 µM. With `CC(Nc1cccc(Cl)c1)c1ccncc1` (stereo not drawn) the figure was inactive: > 100 µM. For `N#C/C(=C\c1cc(F)cc(F)c1)c1ccccn1`, the GI50 is inactive: 28.1 µM. With `Cc1ccc(N2Cc3c(ccc4ccccc34)OP2(=O)Oc2ccc(Cl)c(C)c2)cc1` (stereo not drawn) the figure was inactive: > 60.8 µM; with `CCSCN(C)c1nc(N(C)C)nc(N(C)C)n1`, inactive: > 100 µM. As to `Cc1cc(C#N)c(Nc2c(C)cccc2[N+](=O)[O-])s1`, the GI50 was inactive: 25.3 µM. Consider `BrP(NC1CCCCCC1)(c1ccccc1)(c1ccccc1)c1ccccc1`, for which the GI50 was inactive: 13.1 µM. For `CN[C@@H](C)[C@H](N)c1ccccc1`, the GI50 was inactive: > 100 µM. Take `CC(C)[C@H]1NC(=O)[C@H]2N=C(O[C@@H]2C)[C@@H]2CCCN2C(=O)[C@H](Cc2ccccc2)NC(=O)[C@@H]2CSC(=N2)[C@@H](Cc2ccccc2)NC(=O)[C@@H]2CSC1=N2`: the GI50 was inactive: > 100 µM. With `CCCCCC1CC(C(C)=O)CN1c1ccc(F)cc1` (stereo not drawn) the figure was inactive: > 100 µM. With `OCC1OC(c2n[nH]c3c(O)ncnc23)C(O)C1O` (stereo not drawn) the figure was inactive: 20.2 µM; with `Cc1ccc(/C=C2\CN(C)CC3=C2OC(N)=C(C#N)C3c2ccc(C)cc2)cc1` (stereo not drawn), inactive: 27.4 µM. On to `O=C1Sc2ccccc2C(=O)N2CSCC12` (stereo not drawn), for which the GI50 is inactive: > 100 µM. As to `Cc1cc(S(N)(=O)=O)c(SCc2nc(N)nc(N(C)C)n2)cc1Cl`, the GI50 is inactive: > 10 µM.

Take `CCN(CC)CCOc1ccc(CCc2cc(OC)c(OC)c(OC)c2)cc1`: the GI50 was inactive: > 100 µM.
